Hit rate of the full screen: of about 310,000 compounds, about 14,000 (4.5%) showed an effect of 50% or more. Effects have a minus sign here. The list shows a part of the results.
These molecules were tested against human ether-à-go-go-related gene (hERG) potassium channel (human, UniProt Q12809) (assay: primary screen, population patch clamp on CHO cells stably expressing hERG).
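Also: peak tail current of the secondary pulse compared with the same well before compound.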

human ether-à-go-go-related gene (hERG) potassium channel, sequence (Q12809 whole entry, looked up): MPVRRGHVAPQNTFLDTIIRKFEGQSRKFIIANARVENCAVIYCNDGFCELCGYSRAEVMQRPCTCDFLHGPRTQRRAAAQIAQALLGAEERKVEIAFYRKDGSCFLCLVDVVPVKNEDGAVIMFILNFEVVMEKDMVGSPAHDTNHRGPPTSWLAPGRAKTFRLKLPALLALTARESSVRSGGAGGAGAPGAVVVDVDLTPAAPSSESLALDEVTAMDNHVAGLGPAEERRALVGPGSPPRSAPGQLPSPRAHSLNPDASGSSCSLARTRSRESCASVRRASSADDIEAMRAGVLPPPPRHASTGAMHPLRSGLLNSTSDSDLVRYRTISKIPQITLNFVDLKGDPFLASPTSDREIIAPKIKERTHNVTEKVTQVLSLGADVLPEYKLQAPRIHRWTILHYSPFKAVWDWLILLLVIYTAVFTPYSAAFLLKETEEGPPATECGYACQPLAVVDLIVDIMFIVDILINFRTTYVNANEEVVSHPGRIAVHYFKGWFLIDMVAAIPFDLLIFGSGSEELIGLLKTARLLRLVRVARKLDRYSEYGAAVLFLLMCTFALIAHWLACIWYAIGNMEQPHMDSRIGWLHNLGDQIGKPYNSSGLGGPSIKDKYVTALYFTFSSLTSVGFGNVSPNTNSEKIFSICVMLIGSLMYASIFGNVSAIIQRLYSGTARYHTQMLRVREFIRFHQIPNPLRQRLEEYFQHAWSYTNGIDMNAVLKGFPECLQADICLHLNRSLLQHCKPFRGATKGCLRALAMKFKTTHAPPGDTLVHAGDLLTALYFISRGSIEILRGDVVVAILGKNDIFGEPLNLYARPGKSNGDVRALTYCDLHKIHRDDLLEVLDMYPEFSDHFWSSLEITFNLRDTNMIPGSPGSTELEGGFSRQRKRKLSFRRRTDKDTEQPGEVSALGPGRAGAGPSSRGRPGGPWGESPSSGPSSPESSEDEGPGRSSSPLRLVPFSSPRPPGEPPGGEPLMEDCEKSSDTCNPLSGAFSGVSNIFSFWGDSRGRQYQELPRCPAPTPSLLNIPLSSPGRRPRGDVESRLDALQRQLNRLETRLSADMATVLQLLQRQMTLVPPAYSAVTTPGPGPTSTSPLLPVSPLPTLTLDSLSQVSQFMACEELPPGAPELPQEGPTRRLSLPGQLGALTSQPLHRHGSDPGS

| Structure (SMILES) | hERG current change (%, negative = inhibition) at 10uM [%] |
| --- | --- |
| COc1ccc(C(=O)NC(=S)N2CC(C)OC(C)C2)cc1OC (stereo not shown) | 8.99 |
| C=CCNC(=O)NC(=S)c1ccccc1 | -4.57 |
| COC(=O)c1sccc1NC(=O)Nc1cc(C)cc(C)c1 | 12.1 |
| COCc1c(C(=O)NC2CCCCC2)sc2cccc(F)c12 | -14.1 |
| Cn1cc(CNC(=O)CC2C(=O)NCCN2CC(C)(C)C)cn1 (stereo not shown) | 18.9 |
| CN(Cc1cccs1)C(=O)CCc1ccc(S(=O)(=O)N2CCOCC2)cc1 | -6.63 |
| COc1ccc(C(C)=O)cc1COC(=O)c1cnc(C)cn1 | 30.3 |
| O=C(O)CSC1CC(=O)N(c2ccc(Cl)cc2)C1=O (stereo not shown) | 12.8 |
| C/C(=N\NC(=S)Nc1ccccc1C)C1Cc2ccccc2C(=O)O1 (stereo not shown) | -22.9 |
| Cc1cccc(OCC2Cn3c(nc4c3c(=O)[nH]c(=O)n4C)O2)c1 (stereo not shown) | 9.52 |
| CCOC(=O)c1[nH]cnc1C(=O)Nc1ccccn1 | -4.06 |
| CCc1nn2c(N(C)CCO)cc(C)nc2c1-c1ccc(F)cc1 | -14.9 |
| COc1ccc(CCn2c(N3CCN(C)CC3)nc3c2c(=O)[nH]c(=O)n3C)cc1 | -3.78 |
| CCCCOc1ccc(-c2csc(N)n2)cc1[N+](=O)[O-] | 11.2 |
| CN(C)/N=C/c1ccc(P(c2ccc(/C=N/N(C)C)o2)c2ccc(/C=N/N(C)C)o2)o1 | 7.19 |
| CCCCn1c(N)c(N(CCC(C)C)C(=O)c2cccc(N3C(=O)c4ccccc4C3=O)c2)c(=O)[nH]c1=O | -11 |
| CCN1CCCC1CN(Cc1cc2ccc(C)cc2[nH]c1=O)C(=S)Nc1cccc(OC)c1 (stereo not shown) | -70.7 |
| CCCCn1c(N)c(N(CCOC)C(=O)c2ccc(C)c(S(=O)(=O)N3CCCCC3)c2)c(=O)[nH]c1=O | 32.7 |
| COc1ccc(CNC(=O)CSc2nnc(C(F)(F)F)n2C)cc1 | 17.9 |
| CCc1nnc(NC(=O)CC(CN(C)S(=O)(=O)c2ccccc2)c2ccccc2)s1 (stereo not shown) | 29.8 |
| CC1CCCCC1NC(=O)CSc1nc2ccccc2c(=O)n1Cc1ccco1 (stereo not shown) | 13 |
| CC(C)(C)CN1CCNC[C@H]1Cc1cccc2ccccc12 | 15.7 |
| CCn1c(CC(=O)Nc2ccccc2)nnc1SCC(=O)Nc1nnc(C)s1 | 15 |
| CCCCNC(=O)/C(C#N)=C/c1ccc(C(=O)OC)cc1 | 23.5 |
| COc1ccc(NC(=O)C(Sc2ccccc2)c2ccccc2)c(OC)c1 (stereo not shown) | 0.758 |
| CN(C)S(=O)(=O)c1cccc(C(=O)N2CCC(C(=O)O)(c3ccccc3)CC2)c1 | 19.3 |
| O=C(Nc1ccc(S(=O)(=O)N2CCCCC2)cc1)C1CC(=O)N(c2ccc(Cl)cc2)C1 (stereo not shown) | 1.07 |
| COc1ccc(NS(=O)(=O)c2cccc(C(=O)NCc3ccco3)c2)cc1 | -15.8 |

| Structure (SMILES) | hERG current change (%, negative = inhibition) at 10uM [%] |
| --- | --- |
| CC(C)C[C@H](NC(=O)[C@@H]1Cc2c([nH]c3ccccc23)C2c3ccccc3C(=O)N21)C(=O)N1CCC[C@@H]1C(=O)O (stereo partly shown) | 7.77 |
| CC1(C)Cc2c(C#N)c(SCCOc3ccccc3)nc(N3CCOCC3)c2CO1 | -9.49 |
| CC(=O)C(Sc1nc(N2CCOCC2)nc(N2CCOCC2)n1)C(=O)Nc1ccccc1 (stereo not shown) | -1.74 |
| CC12CCC(C(=O)N3CCCCC3)([C@H](Br)C1=O)C2(C)C (stereo partly shown) | 2.72 |
| COc1ccccc1CNC(=O)C(=O)c1cn(CC(=O)N2CCOCC2)c2ccccc12 | 0.703 |
| Cc1c(NC(=O)COC(=O)CCc2c[nH]c3ccccc23)c(=O)n(-c2ccccc2)n1C | -26.8 |
| CC(=O)c1c(C)oc2ccc(NS(=O)(=O)c3cccs3)cc12 | 13.2 |
| O=C(/C=C/c1ccc(OCCCF)cc1)NCc1ccc(Cl)c(Cl)c1 | 4.17 |
| COc1ccc(Cc2nn[nH]n2)cc1 | 17 |
| CCOC(=O)c1c(P(=O)(N2CCOCC2)N2CCOCC2)noc1N | -0.372 |
| O=C(N/N=C/c1cccnc1)c1ccc2c(c1)OCCO2 | 8.1 |
| O=C(NCc1ccccc1)c1sc(=S)n2c1[nH]c(=O)c1ccccc12 | -25.7 |
| COc1ccc(OC)c(N(CC(=O)NC2CC2)S(=O)(=O)c2ccc(C)cc2)c1 | -9.12 |
| Cc1ccc(C(=O)NC(=S)Nc2ccccc2C(F)(F)F)cc1 | 16.3 |
| O=c1c2ccccc2ncn1-c1ccc(Cl)c(Cl)c1 | -1.01 |
| C=CCSc1nnc2c(n1)OC=Nc1ccc(Br)cc1-2 | -24.9 |
| CCC1(C(=O)OC)NC(c2cccc(F)c2)C2C(=O)N(C)C(=O)C21 (stereo not shown) | 27.8 |
| CCOC(=O)c1c(S(=O)(=O)NCC(=O)Nc2cc(C)ccc2C)c(C)n(C)c1C | -30.9 |
| Oc1ccccc1/C=N/n1c(COc2ccccc2)n[nH]c1=S | 19 |
| COc1cccc(-c2coc3cc4oc(=O)c(CCC(=O)O)c(C)c4cc23)c1 | -8.79 |
| CN(C(=O)CSc1nnc(Cc2cccc3ccccc23)n1N)C1CCS(=O)(=O)C1 (stereo not shown) | 17.5 |
| CC1=C(C(=O)OC(C)C)C(c2cccs2)N2C(=O)C(C)SC2=N1 (stereo not shown) | 6.04 |
| CCC1C(O)=C(c2ccccn2)C(=N)N1c1ccccc1 (stereo not shown) | 1.47 |
| COC(=O)c1cc(S(=O)(=O)NCC2CCN(Cc3ccccc3F)CC2)c[nH]1 | -21.4 |
| Cn1nc(C(F)(F)F)c(/C=N/OC(=O)c2ccccc2)c1SCc1ccccc1Cl | -4.9 |
| CCC(=O)N1c2ccccc2NC2=C(C(=O)CCC2)C1c1ccco1 (stereo not shown) | 22.9 |
| CCCCn1c(N)c(N(CCOC)C(=O)c2cc3c(s2)CCC3)c(=O)[nH]c1=O | 0.214 |

From PMC4336329 (PLoS ONE, 2015)
